The list shows a part of the results. Shown are side measurements of this screen, not its main read-out; they come without a call.
What was measured:
Experiment in all cases: Primary Screen for Target Class Profiling of Small Molecule Inhibitors of Methyltransferases
[1] = target: Glycine N-methyltransferase (Homo sapiens) (UniProt Q14749); settings: purified enzyme, MTase-Glo SAH luminescence; measured here: GNMT inhibition; at 40 µM; stronger effect = lower value
In short: (§1)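 Each enzyme was reacted with SAM and its substrate, with compounds tested once at 40 uM; SAH formed was read by MTase-Glo luminescence.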

[2] = target: Guanidinoacetate N-methyltransferase (Homo sapiens) (UniProt Q14353); settings: purified enzyme, MTase-Glo SAH luminescence; measured here: GAMT inhibition; at 40 µM; stronger effect = lower value
In short: as §1

[3] = target: Histamine N-methyltransferase (Homo sapiens) (UniProt P50135); settings: purified enzyme, MTase-Glo SAH luminescence; measured here: HNMT inhibition; at 40 µM; stronger effect = lower value
In short: as §1

[4] = target: Nicotinamide N-methyltransferase (Homo sapiens) (UniProt P40261); settings: purified enzyme, MTase-Glo SAH luminescence; measured here: NNMT inhibition; at 40 µM; stronger effect = lower value
In short: as §1

[5] = target: Phenylethanolamine N-methyltransferase (Homo sapiens) (UniProt P11086); settings: purified enzyme, MTase-Glo SAH luminescence; measured here: PNMT inhibition; at 40 µM; stronger effect = lower value
In short: as §1
% is set by controls: 0 for no effect and ±100 for the full control effect.

| Structure (SMILES) | activity change, negative = inhibition [1] [%] | activity change, negative = inhibition [2] [%] | activity change, negative = inhibition [3] [%] | activity change, negative = inhibition [4] [%] | activity change, negative = inhibition [5] [%] |
| --- | --- | --- | --- | --- | --- |
| O=C(NC1CCCCC1)C1CN(C(=O)c2ccc(Br)o2)CC12CCOCC2 (stereo not given) | -0.221 | -0.207 | 1.83 | -3.12 | 0.844 |
| COC(=O)c1ncn2c1C(=O)N(Cc1ccc(OC(C)C)cc1)C(C)(C(=O)NC1CCCCC1)C2 (stereo not given) | 6.07 | 0 | 7.03 | 10.4 | 6.72 |
| Cc1cc(N2CCN([C@@H]3CN[C@H](C(=O)N4CCSC4)C3)CC2)n(-c2ccccc2)n1 | -47.9 | -26.2 | -11.8 | -40.4 | -10.3 |
| COc1ccccc1CNC(=O)c1ccc2c(c1)N(C)C1CCCCN1C2=O (stereo not given) | -15.1 | -2.93 | -12.6 | -3.6 | -3.72 |
| CC1(C(=O)NC2CCCCCC2)Cn2c(cc3occc32)C(=O)N1C1CCCCCC1 (stereo not given) | -9.69 | -1.47 | -7.92 | -10.7 | -10.5 |
| C=C1C(=O)O[C@H]2C1CCC(C)=C1C(=O)C=C(C)[C@@]12O (stereo not given in full) | 0.044 | -7.95 | 5.15 | -15.6 | -6.63 |
| COC1CCCC/C(C)=C/C2C=C(C)C(C)C3C(CC(C)C)NC(=O)C23C(=O)C1 (stereo not given) | 0 | 9.9 | 13 | -4.2 | 3.2 |
| Cc1ccc(NC(=O)N2CCn3c(C)ccc3C2C(C)C)c(Cl)c1 (stereo not given) | -2.44 | 3.85 | -10.9 | -16.8 | -1.62 |
| COc1ccnc(CS(=O)c2nc3ccc(OC(F)F)cc3[nH]2)c1OC (stereo not given) | – | -6.63 | – | -19.4 | -1.42 |
| CN(C)[C@H]1CCN(C(=O)c2ccc(SCCO)cc2)C[C@H]1CCC(=O)O | -5.17 | -8.86 | -4.36 | -11.3 | 12.7 |
| C=C(NC(=O)C(=C)NC(=O)c1csc(C2=NC3c4csc(n4)C4NC(=O)c5csc(n5)C(C(C)(O)C(C)O)NC(=O)C5CSC(=N5)/C(=C/C)NC(=O)C(C(C)O)NC(=O)c5csc(n5)C3(CC2)NC(=O)C(C)NC(=O)C(=C)NC(=O)C(C)NC(=O)C(C(C)CC)NC2C=Cc3c(C(C)O)cc(nc3C2O)C(=O)OC4C)n1)C(N)=O (stereo not given) | -14.3 | – | 5.46 | – | – |
| COC1/C=C/C(C)(O)C(SCC(N)C(=O)O)CC(=O)OC(C)C(C)CC/C=C/1C (stereo not given) | -0.736 | -0.871 | 4.28 | -13.4 | 1.2 |
| Cn1c(=O)n(C)c2cc(S(=O)(=O)N3CCN(c4ccccc4)CC3)c(Cl)cc21 | 14 | 2.88 | 11.2 | 4.96 | 9.39 |
| C=CCCC(CN1CCCC1)Oc1ccc(C(=O)NCC)cn1 (stereo not given) | -4.12 | -11.5 | -4.18 | -17.4 | -18.2 |
| CN1C(=O)c2cc(C(=O)NC3CCCCC3)nn2CC1(C)C(=O)NCc1ccc(F)cc1 (stereo not given) | 6.06 | 0 | 2.63 | 4.33 | 0.525 |
| Cc1ccccc1CN1CCC(N2CCCC(C(=O)NC3CC3)C2)CC1 (stereo not given) | -1.44 | -1.18 | -9.26 | -0.243 | -0.658 |
| CC(C)n1c(=O)sc2cc(NS(=O)(=O)c3ccc4c(c3)n(C)c(=O)n4C)ccc21 | -10.7 | 0 | 7.83 | -4.75 | 3.27 |
| CCOc1ccc(C(=O)CSc2nnc3n(C)c(=O)c4ccc(C(=O)NC5CCCCC5)cc4n23)cc1 | 0.548 | 5.08 | 5.62 | 4 | 5.96 |
| O=C1CCCCC(CNC(=O)c2cn[nH]c2-c2ccccc2)N1 (stereo not given) | -0.191 | 2.29 | 0.92 | -5 | 3.67 |

| Structure (SMILES) | activity change, negative = inhibition [1] [%] | activity change, negative = inhibition [2] [%] | activity change, negative = inhibition [3] [%] | activity change, negative = inhibition [4] [%] | activity change, negative = inhibition [5] [%] |
| --- | --- | --- | --- | --- | --- |
| CC(C)c1ccc(NC(=O)c2cccs2)c(-c2nc3ccccc3[nH]c2=O)c1 | -2.65 | -7.08 | 6.91 | -29.6 | -8.11 |
| COc1ccc(-c2cc(C(=O)NCCc3ccc(OC)c(OC)c3)c3c(-c4ccc(OC)cc4)[nH]nc3n2)cc1 | 2.81 | 0 | 1.67 | 1.56 | -0.684 |
| Cc1nnc2n1CCC(NC(=O)c1ccoc1)CC2 (stereo not given) | -2.19 | -0.417 | -0.522 | -7.36 | -1.7 |
| CCCn1c(=O)c2cc(F)ccc2n2c(SCC(=O)Nc3ccc(F)cc3)nnc12 | 1.05 | 4.5 | 7.54 | -1.22 | 0.032 |
| CCCN1C(=O)c2c(C(=O)NCc3ccc(N(C)C)cc3)ncn2CC1(C)C(=O)NCc1ccc(C)cc1 (stereo not given) | -0.306 | 0.504 | 4.66 | 0.496 | 5.29 |
| CCOc1cc(C)c(Cl)cc1S(=O)(=O)n1cnc2ccccc21 | -5.95 | -10.3 | 10.1 | -19.5 | -1.55 |
| CN1c2ccccc2C(=O)N2CCC3c4ccccc4NC3C21 (stereo not given) | -5.45 | 2.23 | 9.14 | -14.6 | 2.89 |
| CC1(C(=O)NC2CCCCCC2)Cn2nc(C3CC3)cc2C(=O)N1Cc1cccc(Cl)c1 (stereo not given) | 2.87 | 0 | 6.5 | -0.998 | 2.13 |
| C=CC(C)(C)C1(CC2NC(=O)C3CCCN3C2=O)C(=O)Nc2cc3c(cc21)C=CC(C)(C)O3 (stereo not given) | 5.82 | 4.93 | 8.4 | -9.72 | 3.76 |
| O=C(CSc1nnc2n(CCc3ccccc3)c(=O)c3ccccc3n12)Nc1ccc2c(c1)OCO2 | 0.326 | 2.26 | 7.17 | -4.59 | 2.85 |
| O=C(Cn1ccnc1)N1CCC(N2C(=O)C3(CCCC3)C2c2ccccc2)CC1 (stereo not given) | 0.026 | 2.95 | -0.998 | -8.12 | 13.4 |
| CC(=O)O[C@H]1C[C@H](OC(C)=O)[C@]2(C)[C@H](CC[C@@]34O[C@@H]3C3=C(C)C(=O)O[C@@H]3C[C@H]42)C1(C)C | -2.21 | -0.165 | 2.38 | -8.02 | -8.48 |
| O=C(NCc1ccccc1)C1CCN(c2cnc3nccnc3c2)CC1 | -4.79 | 3.16 | 0.312 | -4.23 | 11.8 |
| Cc1ccc(NC(=O)Cn2nc3nc(Nc4ccc(C)cc4)ccn3c2=O)cc1 | -2.48 | 4.65 | -6.84 | -4.32 | -4.91 |
| CC(=O)OC1C(O)/C(C)=C\C2C(OC(=O)c3ccccc3)C(C)CC2(OC(C)=O)C(OC(C)=O)C(C)/C=C/C(C)(C)C1OC(C)=O (stereo not given) | -4.14 | -9.25 | 5.64 | -26.2 | 1.16 |
| COc1ccccc1N1CCN(CCCCNC(=O)c2ccc3ccccc3c2)CC1 | 11.4 | 14.7 | -0.892 | -9.8 | -2.05 |
| CCOC(=O)c1cc2n(n1)CC(C)(C(=O)NCCC(C)C)N(c1ccc(Cl)cc1C)C2=O (stereo not given) | -3.34 | 0 | 3.06 | 4.58 | -3.45 |
| CN1C(=O)c2cc3ccccc3n2CC1(C)C(=O)NCC(=O)NCc1cccc(Cl)c1 (stereo not given) | 0.688 | 0 | 0.74 | 7.29 | -1.75 |
| CN(C)C[C@@H]1CN(c2ncccn2)C[C@H]1NS(=O)(=O)c1ccc(Cl)cc1 | -7.25 | -11.8 | -2.57 | -10.3 | -6.76 |

| Structure (SMILES) | activity change, negative = inhibition [1] [%] | activity change, negative = inhibition [2] [%] | activity change, negative = inhibition [3] [%] | activity change, negative = inhibition [4] [%] | activity change, negative = inhibition [5] [%] |
| --- | --- | --- | --- | --- | --- |
| C[C@]1(CO)CN(c2cc(C(=O)Nc3ccc4c(c3)-c3c(c(C(N)=O)nn3-c3ccc(F)cc3)CC4)c(Cl)cn2)C[C@@]1(C)CO | -14.6 | -5.07 | -7.95 | -24.1 | -8.41 |
| C1CCN2CC3C[C@@H](CN4CCCC[C@@H]34)[C@H]2C1 | 2.89 | 4.9 | -14.6 | -8.06 | 3.38 |
| CSc1ccc(C(=O)N2C[C@@H](CN3CCN(C)CC3)[C@@H](CO)C2)cc1 | -6.63 | -5.34 | -5.74 | -10 | 1.4 |
| COc1ccccc1C(=O)N1CCC2(C1)C(=NC1CCCCC1)NC(=O)N2c1cc(F)cc(F)c1 (stereo not given) | -5.22 | -3.25 | -2.5 | -6.67 | -1.47 |
| CC1(C(=O)NC2CCCCCC2)Cn2c(cc3occc32)C(=O)N1CCCN1CCCCCC1 (stereo not given) | -4.73 | -2.66 | -8.52 | -4.42 | -3.71 |
| Cc1n[nH]c(C)c1Cc1sc2c(c1C(=O)N1C[C@H](O)CO1)c(=O)n(C)c(=O)n2CC(C)C | -8.57 | -24.8 | 4.5 | -24.5 | -5.07 |
| COCC(=O)N[C@H]1CCN(C(=O)COC)[C@H](C(=O)N[C@H](Cc2c[nH]c3ccccc23)C(N)=O)C1 | -3.19 | -4.76 | -1.09 | -14.1 | 6.34 |
| C/C=C1/[C@H](O[C@@H]2O[C@H](CO)[C@@H](O)[C@H](O)[C@H]2O)OC=C(C(=O)OC)[C@H]1CC(=O)OCCc1ccc(OC(=O)C[C@@H]2C(C(=O)OC)=CO[C@@H](O[C@@H]3O[C@H](CO)[C@@H](O)[C@H](O)[C@H]3O)/C2=C/C)cc1 | -1.04 | 2.08 | 9.09 | -10.4 | 6.89 |
| CCCC1c2cccn2CCN1C(=O)NC(C)C (stereo not given) | -7.41 | 3.39 | -12.2 | -13.6 | -5.91 |
| Cc1ccc(NC(=O)Cn2nc3n(CC(C)C)c(=O)c4ccc(C(=O)NC(C)C)cc4n3c2=O)c(C)c1 | -0.202 | -2.86 | 1.08 | -0.983 | -2.82 |
| COc1ccc(OCc2nc(C)c(CCO)c(=O)n2CC(=O)NC(C)CCc2ccccc2)cc1 (stereo not given) | -0.865 | -0.048 | -0.196 | -3.31 | -3.21 |
| CNC(=O)c1cc(C2CC2)nc2c1c(C1CCCN(C(=O)Cc3ccccn3)C1)nn2C (stereo not given) | 0.665 | -0.973 | 2.09 | -1.37 | 1.25 |
| Cc1ccc(CCNS(=O)(=O)c2ccc3c(c2)n(C)c(=O)n3C)cc1 | -2.14 | 3.74 | -6.78 | -12.8 | -11.6 |
| CCOC(=O)c1cc2n(n1)CC(C)(C(=O)NC1CCCC1)N(c1cc(Cl)ccc1C)C2=O (stereo not given) | 3.46 | 0.442 | -16 | -1.04 | 4.48 |
| Cc1ccc(CCN2C(=O)CSc3c(c4ccccc4n3C)C2C(=O)NCc2ccccc2)cc1 (stereo not given) | 0.102 | 0.037 | -0.566 | 3.78 | -0.037 |
| COc1cccc(CN2CC(=O)N(Cc3ccc(F)cc3)c3ccccc3S2(=O)=O)c1 | 9.21 | 0 | 9.72 | -2.28 | 3.22 |
| COc1c2c(c(C)c3c1C(=O)OC3)OC1(C)CC(O)C34OC(OC)(CC(OC(C)=O)C3(C)C1C2)OC4(C)C (stereo not given) | -2.52 | 2.28 | 7.36 | -12.2 | 0.659 |
| Cc1ccc(N2CC(C)N(C(=O)c3ccc(-n4cnnn4)cc3)CC2=O)cc1 (stereo not given) | -0.756 | 0.453 | 1.22 | -0.969 | -16.1 |

From PubChem BioAssay AID1745853 (National Center for Advancing Translational Sciences (NCATS), 2022)
